Here are results for 172 sequences from article PMC6212790.

The list shows a part of the results. At the low end of the ranking the order means little.

The target in this assay is T1, GST-Rok (full length) (UniProt O34857).
T1 sequence: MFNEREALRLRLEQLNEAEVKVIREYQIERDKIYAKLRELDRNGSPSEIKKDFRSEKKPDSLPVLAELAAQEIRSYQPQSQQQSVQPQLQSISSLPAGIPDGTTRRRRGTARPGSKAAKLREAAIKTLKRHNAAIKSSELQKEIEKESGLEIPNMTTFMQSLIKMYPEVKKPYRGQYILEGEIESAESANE
In words: protein binding microarray.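 Also: rank score from −0.5 (least bound) to 0.5 (best bound).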 Particulars: Rok is a gene silencer of Bacillus subtilis; high values mean tight binding; most listed sequences are background and not binding sites; double strand, one strand shown.
In turn, CATAAGCA yielded a binding signal of 0.0136 E-score.

In turn, CCAAGAGC gave a binding signal of -0.21 E-score. ACCAATGC had a binding signal of -0.0223 E-score. For AACGAGAG, the binding signal is -0.0468 E-score.

The sequence AGTTGAGG gave a binding signal of -0.0249 E-score. To ATCGCTGA belongs -0.0945 E-score; to AACCCTCT, -0.137 E-score; to AGAGAACG, 0.0786 E-score. CCCATCAG: the binding signal is -0.199 E-score. On to CCGCTGCC, for which the binding signal is -0.234 E-score. With ATACCGTC, the binding signal amounted to 0.105 E-score. Regarding CTACCGTA, the binding signal was determined as 0.311 E-score.

The sequence AATGACGA showed a binding signal of 0.0989 E-score.

Sequence AACCTCCT yielded a binding signal of -0.0922 E-score. In turn, GAACGCAA registered a binding signal of 0.0471 E-score. AATCGCAT had a binding signal of 0.0612 E-score.

ACTGTCAG returned a binding signal of -0.0887 E-score. As for GCGACGCC, the binding signal was -0.228 E-score. CGGAATGC registered a binding signal of -0.154 E-score. Sequence GAGAGCGC registered a binding signal of -0.232 E-score.

CGTTCCAC displayed a binding signal of -0.021 E-score. Sequence CCAATGTA had a binding signal of 0.0945 E-score.

For TCCTTTCA, the binding signal was -0.131 E-score.

In the case of GAGTGCTA, the binding signal turned out to be 0.136 E-score. The figure for AAGCAACC is -0.143 E-score. To CCCCCAAA belongs -0.353 E-score. For CCGCCACA, the binding signal was -0.129 E-score. The figure for CTTTGGTC is -0.0411 E-score. The sequence GGTAACAC yielded a binding signal of 0.0456 E-score.

GAGTAACC gave a binding signal of -0.000947 E-score.

In the case of GTCAGTGA, the binding signal was -0.0974 E-score. AATCTTCT: the binding signal was 0.121 E-score. In turn, GTTAGATA displayed a binding signal of 0.241 E-score. Consider AGACGTGA, for which the binding signal is -0.117 E-score. Consider CGACAAGC, for which the binding signal was -0.2 E-score. In turn, TCAGCTCA yielded a binding signal of -0.129 E-score. The sequence ATTGTATA yielded a binding signal of 0.32 E-score. To ACCACCCT belongs -0.178 E-score.

Sequence ATCTGGCC showed a binding signal of -0.287 E-score. On to AGCGGTTC, for which the binding signal is -0.145 E-score.

In the case of AGCCAACG, the binding signal was -0.22 E-score. To TTCTTAAA belongs 0.112 E-score; to CCTAATAC, 0.174 E-score; to ACGGCGCC, -0.271 E-score. Sequence GTCGGCAC displayed a binding signal of -0.269 E-score. GGGTTGAC: the binding signal is -0.132 E-score.

In turn, AATGAAAT gave a binding signal of 0.182 E-score. The sequence TTAGCGAA showed a binding signal of -0.0273 E-score. Turning to ACACCCCT, the binding signal is -0.364 E-score. The sequence ATATAAGG yielded a binding signal of 0.0146 E-score. Regarding GAAGCGGC, the binding signal is -0.242 E-score. To ATTCAAGC belongs -0.0301 E-score; to CCCTTAAG, -0.251 E-score. To ATGAAGCA belongs -0.146 E-score; to GAGACAGC, -0.0967 E-score; to ATGCCCTA, -0.0587 E-score. To TGTTTTAA belongs 0.135 E-score; to TCATGGAA, 0.107 E-score. ACAACCAT gave a binding signal of -0.0213 E-score. The sequence CCCATAGG had a binding signal of -0.27 E-score.

Consider TAATTCTA, for which the binding signal came to 0.345 E-score. In turn, AACAGAGT displayed a binding signal of 0.0366 E-score.

GATGGTCC showed a binding signal of -0.15 E-score. For AGCCCTTA, the binding signal is -0.135 E-score. GCCGTCGA showed a binding signal of -0.222 E-score. To GGGGGACC belongs -0.442 E-score; to AGAAGATA, 0.168 E-score. To CCACATTC belongs -0.037 E-score; to GCCACCCC, -0.331 E-score; to ACAACGGA, 0.0198 E-score.

Regarding CAAGCTTG, the binding signal was 0.0805 E-score.

Regarding AGAACAAT, the binding signal was found to be 0.0745 E-score. To CCGGGTAA belongs -0.0598 E-score. Consider AACATCTA, for which the binding signal stood at 0.236 E-score.

GTCGTCAA came in with a binding signal of -0.0888 E-score. Consider AAGCTGGC, for which the binding signal is -0.291 E-score. AACGGATT had a binding signal of -0.138 E-score. Regarding CACGCTGA, the binding signal was -0.189 E-score. As for ACCTTAAT, the binding signal turned out to be 0.225 E-score. To ATACTAAG belongs 0.175 E-score; to TCGCCGAA, -0.00469 E-score; to CTAATCTC, 0.0718 E-score.

For ACGGAGTA, the binding signal is 0.0618 E-score. Turning to ATGGTGCG, the binding signal was -0.116 E-score. The figure for AAAGAGAC is -0.115 E-score; for CCATTGCG it is -0.13 E-score; for AGTCTGCG it is 0.0274 E-score. AGGGATGC registered a binding signal of -0.295 E-score. To AAACTTCT belongs 0.26 E-score; to AGCTCACC, -0.298 E-score; to CAGAGAGC, -0.152 E-score.

With AGCGAGTA, the binding signal was determined as 0.19 E-score. As for GAAGAGGA, the binding signal was -0.191 E-score.

Take ACATATTC: the binding signal amounted to 0.27 E-score.

AGGGAAGG: the binding signal was -0.28 E-score. ATTTTCTA showed a binding signal of 0.397 E-score. TCCTCTCA: the binding signal was -0.197 E-score. With AGTTGGCA, the binding signal turned out to be 0.106 E-score. As to CTCTTGCA, the binding signal was -0.0115 E-score. The figure for CAGCCGGG is -0.324 E-score; for AAGGTAAT it is 0.209 E-score. For AAGTCTCT, the binding signal was -0.169 E-score. To GGTATAAA belongs 0.383 E-score; to AAGTAACT, 0.225 E-score. GACTCGAA yielded a binding signal of -0.164 E-score. Turning to CTTCTCGC, the binding signal is -0.0135 E-score.

For the sequence AATTGCTA, the binding signal amounted to 0.335 E-score. On to ACTCGATA, for which the binding signal came out at 0.157 E-score. For CCTAATGC, the binding signal is -0.154 E-score. As to GCCTCGGA, the binding signal was -0.114 E-score. As for AATAAGTG, the binding signal was determined as 0.0215 E-score. To CACCACAA belongs 0.174 E-score. The sequence CGCACGCG showed a binding signal of -0.257 E-score. The figure for AGACTCTG is -0.185 E-score.

AGAGACTA came in with a binding signal of 0.093 E-score.

AATGGCCT yielded a binding signal of -0.0659 E-score. The figure for GTCAACCA is 0.0527 E-score; for AGGTATCG it is 0.0878 E-score; for CCCTGGGC it is -0.337 E-score. In turn, CCAATACA displayed a binding signal of 0.0507 E-score.

On to CGTTGTGC, for which the binding signal is -0.051 E-score. The sequence GTTGCAGA came in with a binding signal of -0.0465 E-score. GAGTAAGA gave a binding signal of -0.0643 E-score. To AGGGAAGA belongs -0.237 E-score; to CCAACATA, 0.178 E-score.

GAGCCACC returned a binding signal of -0.278 E-score. The sequence GTGGGCCA returned a binding signal of -0.235 E-score. In the case of CTGCGCGA, the binding signal was -0.168 E-score. In the case of GCGAACTA, the binding signal was 0.272 E-score. As for CGCTAATA, the binding signal stood at 0.282 E-score.

CTAAGCTC showed a binding signal of 0.177 E-score. The sequence AGAGGAAT registered a binding signal of -0.0077 E-score. Take TAAGATAA: the binding signal was determined as 0.194 E-score. To CGGGGTAA belongs -0.098 E-score. Sequence GCTCCAAA had a binding signal of -0.198 E-score.

On to CAACCCAA, for which the binding signal turned out to be 0.103 E-score. Turning to AATGCTGT, the binding signal stood at 0.207 E-score. To ATGGACGG belongs -0.197 E-score; to CGAAAGGA, -0.308 E-score; to GTTCCGAA, -0.0287 E-score. In turn, CGATCCCG displayed a binding signal of -0.227 E-score.

CAGCTATG gave a binding signal of -0.0585 E-score. To CTGGTATC belongs 0.0753 E-score; to GTAAATCA, 0.194 E-score. Sequence GCGAAAGA returned a binding signal of -0.083 E-score.

In turn, CGTGGGAC showed a binding signal of -0.0558 E-score. To AAAGGAGT belongs -0.295 E-score; to AAGAACGC, -0.105 E-score; to AAATATAA, 0.253 E-score. CCGCTCCC gave a binding signal of -0.479 E-score.

In the case of GCATTGAA, the binding signal worked out at 0.159 E-score.

On to CGGACGAA, for which the binding signal was -0.029 E-score. In the case of CGAGCGGC, the binding signal was -0.256 E-score.

For the sequence CACCCCCA, the binding signal was -0.326 E-score. The figure for GTTCCAAA is -0.0585 E-score. Turning to ATTACTGA, the binding signal came to 0.0954 E-score. The sequence CATCTGGA had a binding signal of 0.0248 E-score. GACCAAGA registered a binding signal of 0.0064 E-score. As for CAATATGG, the binding signal was 0.13 E-score.

Sequence CTCGCAAC showed a binding signal of -0.0684 E-score. CGTCCCGA: the binding signal was -0.0109 E-score. To ACCTGCAC belongs -0.17 E-score; to CAATCCTA, 0.176 E-score. ATTACAAA returned a binding signal of 0.154 E-score. Sequence TCGACGAA yielded a binding signal of -0.0545 E-score. On to AATTGCAA, for which the binding signal is -0.0247 E-score. With ATGCATTG, the binding signal stood at 0.0725 E-score. The sequence GATAGGAA gave a binding signal of 0.225 E-score. As to AAAAGCCC, the binding signal was -0.201 E-score.

Turning to CGGAAAAC, the binding signal was found to be 0.0816 E-score. For GGCTGAAA, the binding signal is -0.0118 E-score. For AATCTCGG, the binding signal was determined as 0.126 E-score.
